Measurements taken from PubChem BioAssay AID686979 (National Center for Advancing Translational Sciences (NCATS), 2013).
Hit rate of the full screen: of about 420,000 compounds, about 50,000 (12%) were called active. Inconclusive means that the source gave no clear call. Such entries were picked first, then a sample of the others. The call rests on the fitted dose curve; in most records, active means well fitted inhibition curve with a large enough effect; inconclusive means small, poorly fitted or top-dose-only effect; inactive means flat fitted curve, though single readings scatter. No potency is given beside an inconclusive call; the fits are too rough.

test: qHTS for Inhibitors of human tyrosyl-DNA phosphodiesterase 1 (TDP1): qHTS in cells in presence of CPT; conditions: chicken DT40 Tdp1-/-;hTDP1 cells + 20 nM CPT, ATP luminescence, 48 h; activity change, negative = growth inhibition: at 46.2 µM (top of the series) unless noted; further: nearly all actives have a fitted effect of over 55% in size
Summary of the method: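 Chicken DT40 Tdp1-/- cells stably complemented with human TDP1 were seeded at 400 cells/well in medium containing 20 nM camptothecin, exposed to pin-transferred compounds, and grown at 37 °C for at least 48 hr. Viability was read as ATP luminescence.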
On the % scale 0 is the no-effect control and ±100 the full control effect; potency means the concentration at half of the fitted maximal effect; tags describe the fitted curve by direction and shape.

| Structure (SMILES) | Potency | activity change, negative = growth inhibition |
| --- | --- | --- |
| CN(C)c1ccc(-c2noc(C3CC(=O)N(c4ccc5c(c4)OCCO5)C3)n2)cc1 (stereo not drawn) | active: 4.61 µM |  |
| CCc1nnc2c3ccccc3nc(Nc3ccc(F)c(Cl)c3)n12 | active: 18.4 µM |  |
| CCn1cc(CN2CCC(C(=O)Nc3ccc(Oc4cccnc4)cc3)CC2)c(C)n1 | inconclusive [inhibitor, partial curve] |  |
| O=C(c1ccc(-n2cncn2)c2ccoc12)N1CCOCC1 | inactive |  |
| CC(C(=O)N(C)Cc1cccc(F)c1)N1CCN(S(=O)(=O)c2ccc3c(c2)OCCCO3)CC1 (stereo not drawn) | inconclusive [inhibitor, single point] |  |
| COc1cccc(-n2nnnc2SCC(=O)Nc2ccc(NC(C)=O)cc2)c1 | inconclusive [inhibitor, single point] |  |
| Cc1noc(C)c1C(=O)NCCc1ccc(S(N)(=O)=O)cc1 | inactive |  |
| Cc1ccc(C(=O)Nc2ccc(S(=O)(=O)N3CCCC3)cc2)o1 |  | inconclusive: -32.4% [inhibitor] |
| CN1CCN(C(=O)C2CCC(=O)N(CCc3cccc(F)c3)C2)CC1 (stereo not drawn) | inactive |  |
| CCNC(=O)C1(C)CCN(C(=O)c2ccc(C(F)(F)F)cc2)C1 (stereo not drawn) | inactive |  |
| c1ccc(-c2nc3ccccc3[nH]2)cc1 | inconclusive [inhibitor, partial curve] |  |
| Oc1c(Cl)cc(Cl)c2c1NCCC2 | active: 6.51 µM |  |
| O=C(CSc1n[nH]c(-c2ccccn2)n1)Nc1ccccc1 | active: 23.1 µM |  |
| CCCN1C2CCCC1CC(NC(=S)Nc1cc(C)cc(C)c1)C2 (stereo not drawn) | inconclusive [inhibitor, single point] |  |
| COC(=O)C1=C(C)NC(C)=C([N+](=O)[O-])C1c1ccccc1C(F)(F)F (stereo not drawn) | active: 17.4 µM |  |
| CC(/C=C/c1ccccc1)=N\NC(=O)C1CC1(C)c1ccccc1 (stereo not drawn) | inconclusive [inhibitor, single point] |  |
| COc1cc(NC(=O)C/C(C)=N/NC(=O)C(=O)NCCO)c(OC)cc1Cl | inconclusive [inhibitor, single point] |  |
| C/C=C/C(=O)OCC(=O)Nc1ccc(C)c(S(=O)(=O)N(C)C)c1 | inactive |  |
| COc1cccc(C(=O)Nc2ccc(C(=O)c3ccncc3)cc2)c1 | inconclusive [inhibitor, single point] |  |
| COc1cc(/C=C/c2ccc(/C=C/c3cc(OC)c(OC)c(OC)c3)cc2)cc(OC)c1OC | inactive |  |
| COCCNC(=O)c1cc2c(s1)-c1ccc(Cl)cc1SC2 | inactive |  |
| CCCN(Cc1nnc(-c2ccccc2Cl)o1)C(=O)c1cc([N+](=O)[O-])cc([N+](=O)[O-])c1 | active: 6.51 µM |  |
| O=C(CNS(=O)(=O)c1ccc(Br)s1)Nc1ccc2c(c1)OCCO2 | inconclusive [inhibitor, partial curve, poor fit] |  |
| COc1ccc(CCNC(=O)[C@H](C)N2C(=O)N3CCc4c([nH]c5ccccc45)[C@@]3(C)C2=O)cc1OC | inconclusive [inhibitor, single point] |  |

| Structure (SMILES) | Potency | activity change, negative = growth inhibition |
| --- | --- | --- |
| CCN(Cc1ccccc1)C(=O)CN1C(=O)CSc2ccc(S(=O)(=O)N(CC)CC)cc21 | inconclusive [inhibitor, single point] |  |
| O=c1oc2ccccc2cc1-c1ccc(O)cc1O | inconclusive [inhibitor, single point] |  |
| Cc1ccc(/C=C/C(=O)OCC(=O)NCc2cccs2)o1 | inactive |  |
| O=C(NCC(c1ccco1)N1CCc2ccccc21)C(=O)Nc1ccc(F)cc1F (stereo not drawn) | active: 4.11 µM |  |
| CC(=O)N1CCN(CC(=O)Nc2ccccc2Sc2ccccc2)CC1 | inconclusive [inhibitor, partial curve, poor fit] |  |
| CCCC/C(O)=C1\C(=O)CC(C)(C)CC1=Nc1ccc(OC)cc1 | inconclusive [inhibitor, single point] |  |
| COc1ccc(-c2c3c(nc4sc(C(=O)Nc5ccccc5F)c(N)c24)CC(C)(C)CC3=O)cc1 | inconclusive [inhibitor, single point] |  |
| O=C(c1ccco1)N1CCN(c2nc(C(F)(F)F)nc3c2nnn3Cc2ccccc2)CC1 | active: 18.4 µM |  |
| C/C(=N\OCC(=O)NC12CC3CC(CC(C3)C1)C2)c1cc2ccccc2o1 | active: 20.6 µM |  |
| O=C(CNC(=O)C12CC3CC(CC(C3)C1)C2)N/N=C\c1ccccn1 | inactive |  |
| O=C(N/N=C/c1coc2ccc(Cl)cc2c1=O)c1ccncc1 | inconclusive [inhibitor, partial curve] |  |
| O=C(NCc1cccnc1)c1cc(C2CCCN(C(=O)C3CCCCC3)C2)on1 (stereo not drawn) | inconclusive [inhibitor, single point] |  |
| CCc1ccc(CNC(=O)c2nn(-c3ccc(OC)c(Cl)c3)c(=O)c3c2c2ccccc2n3C)cc1 | inactive |  |
| O=C(COC(=O)/C=C/c1ccc(F)cc1)Nc1cccc(S(=O)(=O)N2CCCC2)c1 | inconclusive [inhibitor, partial curve] |  |
| COc1ccc(OC)c2[nH]c(=O)c(CCNC(C)=O)cc12 | inactive |  |
| CCOc1ccccc1NC(=O)CN1C(=O)COc2ccc(S(=O)(=O)Nc3ccccc3)cc21 | active: 16.4 µM |  |
| COCCNC(=S)N/N=C(\C)c1cccc(C(F)(F)F)c1 | inconclusive [inhibitor, single point] |  |
| COc1cccc2[nH]c(C(=O)NN)c(N)c12 | inconclusive [inhibitor, single point] |  |
| CN(Cc1cc2ccccc2[nH]c1=O)S(C)(=O)=O | inactive |  |
| Cc1cc(C)cc(C(=O)Nc2ccc(NC(=O)c3cccs3)cc2)c1 | inconclusive [inhibitor, single point] |  |
| CCCS(=O)(=O)N1CCN(C(=O)c2cccs2)CC1 | inactive |  |
| Cc1ccc(SC[C@H](CC(C)C)N2CCN(C)CCC2=O)cc1 | inconclusive [inhibitor, single point] |  |
| CCCCN1C(N)=NC[C@@H]1c1ccccc1 | active: 16.4 µM |  |
| COc1c(O)ccc2c1CN1CCc3cc4c(cc3C1C2)OCO4 (stereo not drawn) | active: 14.6 µM |  |
